Measurements reported in PubChem BioAssay AID488969 (Vanderbilt High Throughput Screening Facility, 2010).
The full ranking holds about 110,000 compounds; the median of “z-score” is about -0.1, and the highest 2% start at about 2. The list shows a part of the results.

biological target: Metabotropic glutamate receptor 8 (Rattus norvegicus) (UniProt P70579); assay: rat mGluR8 modulators via GIRK flux, primary screen, cell-based, thallium flux, HTS (AID 488969); conditions: HEK293 rat mGluR8, GIRK (G protein-gated inwardly rectifying potassium channel) thallium flux, FluoZin2; at 10 µM; stronger effect = higher value; submaximal glutamate (EC20) added with thallium
UniProt P70579, sequence (P70579 whole entry, looked up): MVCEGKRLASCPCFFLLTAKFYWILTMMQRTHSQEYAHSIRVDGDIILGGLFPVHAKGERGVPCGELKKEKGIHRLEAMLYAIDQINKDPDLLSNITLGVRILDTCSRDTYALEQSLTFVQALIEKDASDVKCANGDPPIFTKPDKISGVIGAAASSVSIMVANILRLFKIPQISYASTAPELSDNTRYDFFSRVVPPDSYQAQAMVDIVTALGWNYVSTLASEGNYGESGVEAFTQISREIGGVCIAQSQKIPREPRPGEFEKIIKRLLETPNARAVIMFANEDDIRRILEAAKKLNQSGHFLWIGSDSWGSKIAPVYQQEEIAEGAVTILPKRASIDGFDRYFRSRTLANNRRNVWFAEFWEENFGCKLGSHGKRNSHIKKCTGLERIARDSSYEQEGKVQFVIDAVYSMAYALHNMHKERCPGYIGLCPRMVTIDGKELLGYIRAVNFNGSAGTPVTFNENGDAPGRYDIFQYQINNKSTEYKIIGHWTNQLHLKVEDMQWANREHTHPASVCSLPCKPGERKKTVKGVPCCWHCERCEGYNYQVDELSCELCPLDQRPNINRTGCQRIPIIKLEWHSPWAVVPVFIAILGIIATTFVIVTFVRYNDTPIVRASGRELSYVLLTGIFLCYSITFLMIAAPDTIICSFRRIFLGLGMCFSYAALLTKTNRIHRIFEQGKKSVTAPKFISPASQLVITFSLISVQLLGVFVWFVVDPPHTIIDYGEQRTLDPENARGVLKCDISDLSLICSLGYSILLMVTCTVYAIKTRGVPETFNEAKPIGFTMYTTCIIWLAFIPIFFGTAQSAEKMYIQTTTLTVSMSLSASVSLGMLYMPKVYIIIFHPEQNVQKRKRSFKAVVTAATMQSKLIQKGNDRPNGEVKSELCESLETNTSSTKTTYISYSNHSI

Row | Structure (SMILES) | z-score
1 | S=C(Nc1ccc(Br)cc1)N1CCN(C2CCCCC2)CC1 | -0.217
2 | COc1ccc(S(=O)(=O)N(CC(=O)N2CCN(C)CC2)c2ccccc2)cc1OC | -0.159
3 | CCC(=O)NC(C)C(c1cccs1)N1CCN(Cc2ccccc2)CC1 (stereo not drawn) | -0.19
4 | Cc1cc(C)cc(N(CC(=O)Nc2cccc(C)n2)S(=O)(=O)c2c(C)noc2C)c1 | -0.992
5 | CC1CCN(c2nc3c(c(=O)[nH]c(=O)n3C)n2Cc2ccccc2)CC1 | -0.127
6 | Cn1cnnc1SCCC(=O)Nc1ccc(Cl)cc1 | 0.135
7 | CCOC(=O)C1=NN(c2cccc(C)c2)C2(S1)SC(C(C)=O)=C(C)N2c1ccccc1 (stereo not drawn) | 0.713
8 | COC(=O)c1cc(OC)c(OC)cc1NC(=O)c1cc(C)on1 | -0.396
9 | COc1ccc(-c2cc(=O)n(-c3ccc([N+](=O)[O-])cc3)[nH]2)cc1 | -0.347
10 | Cc1nnc(NC(=O)C2CCCN(S(=O)(=O)Cc3ccccc3)C2)s1 (stereo not drawn) | -0.175
11 | O=C(NCCCN1CCOCC1)c1ccc(Br)s1 | 0.0846
12 | O=C(CCC1CCCCC1)Nc1ccccc1O | 0.717
13 | CCc1nnc(NC(=O)CSc2nccn2-c2cccc(C)c2)s1 | -0.255
14 | Cc1[nH]c2ccccc2c1/C=N/NC(=O)c1cc(-c2cccs2)[nH]n1 | -0.101
15 | COc1cc(OC)cc(N(C(=O)C2COc3ccccc3O2)C(C(=O)NC2CCCCC2)c2ccc(O)cc2)c1 (stereo not drawn) | -0.751
16 | CCOC(=O)CNC(=O)CSc1nnc(-c2ccco2)n1N | 0.607
17 | Cc1ccccc1NN1C(=O)C=CC1=O | -0.05
18 | O=C(COc1ccc(Cl)cc1)N1CCN(c2cccc(C(F)(F)F)c2)CC1 | -0.457
19 | CCOC(=O)C1=C(C)NC2=C(C(=O)CC(C)(C)C2)C1c1ccsc1 (stereo not drawn) | -0.225
20 | CCn1c(C)c(C(C)=O)c(NCc2ccccc2)nc1=S | 0.38
21 | O=C(CSc1ncnc2ccccc12)c1ccc2c(c1)OCCO2 | -0.224
22 | CNC(=O)c1cc2c(=O)n3cc(C)ccc3nc2n(C(C)C)c1=N | -0.994
23 | Cc1ccc(CC(=O)OCCNC(=O)c2cccnc2)cc1 | 0.0795

Row | Structure (SMILES) | z-score
24 | COC(=O)c1ccccc1SC1CC(=O)N(c2cccc(C)c2)C1=O (stereo not drawn) | -0.105
25 | CCn1c(Cc2ccccc2)nnc1SCC(=O)Nc1nccs1 | -0.168
26 | CC(=O)N/C(=C/c1ccc2c(c1)OCO2)C(=O)Nc1ccccc1 | 0.158
27 | O=C(Cn1cc(C(F)(F)F)ccc1=O)Nc1cc(S(=O)(=O)N2CCOCC2)ccc1Cl | -0.11
28 | CON(c1nc(Cl)nc(N(C)C)n1)S(=O)(=O)c1ccccc1Cl | 2.79
29 | Cc1ccc(N2CC(C(=O)NC3=NCCS3)CC2=O)cc1C (stereo not drawn) | -0.023
30 | COc1cc(C(=O)NNC2=CC(=O)CC(C)(C)C2)cc(OC)c1OC | -0.21
31 | C=CCNC(=O)c1sc(SC)cc1-c1ccc(Cl)cc1 | -2.38
32 | NC(=O)C1(N2CCCCC2)CCN(C(=S)Nc2ccc(F)cc2)CC1 | -0.0913
33 | COc1ccc(/C=N/c2nc3ccccc3n2CCN2CCCCC2)cc1OC | -0.42
34 | Cc1ccc(C23CC4CC(CC(NC(=O)NC(C)(C)CO)(C4)C2)C3)cc1 | 0.0693
35 | CCCc1nc2oc(C(=O)c3ccccc3)c(N)c2c2c1COC(C)(C)C2 | -1.12
36 | CCC(CC)NC(=O)Cc1ccccc1OC | -0.0578
37 | Cc1cc(C)c2c(n1)nn1c(N3CCOCC3)cc(C)nc21 | 0.0779
38 | CSc1nnc(-c2sc3cc(C(F)(F)F)cnc3c2-c2ccccn2)n1C | 0.0151
39 | CCN1CNC(=S)N(c2ccccc2OC)C1 | -0.242
40 | COc1ccccc1N1CCN(C(=O)c2cc3c(s2)CCC3)CC1 | -1.5
41 | COc1ccc(C2NC(=O)c3n[nH]c(C)c32)c(OC)c1 (stereo not drawn) | 0.447
42 | CCCCOc1ccc(C(=O)Nc2cc(C)c(OCC(=O)N3CCOCC3)c(C)c2)cc1 | -0.259
43 | c1ccc(N2CCN(Cc3ccnc4ccccc34)CC2)cc1 | 0.134
44 | COc1ccc(-c2nc(SCc3ccccc3)n(S(C)(=O)=O)n2)cc1 | 0.0796
45 | Cn1c(NC(=O)c2cccs2)c(-c2cccs2)c(=O)c2ccccc21 | 0.899
46 | COc1ccc(OC)c(N(CC(=O)NCc2ccncc2)S(C)(=O)=O)c1 | -0.35

Row | Structure (SMILES) | z-score
47 | c1ccc(COn2nnc3ccccc32)c(COn2nnc3ccccc32)c1 | -0.435
48 | COc1ccccc1NC(=O)COc1ccc(/C=N/NS(=O)(=O)c2ccc(C)cc2)cc1 | -0.382
49 | COc1ccc(C(=O)NC(CC(C)C)C(=O)O)cc1OC (stereo not drawn) | -0.471
50 | O=C(Nc1ccccc1C(=O)NC(Cc1ccccc1)C(=O)NC1CCCCC1)c1ccccc1 (stereo not drawn) | -0.052
51 | COc1cccc(C(=O)NCC(=O)N2CCC(C)CC2)c1 | -0.917
52 | CC1(C)OC(=O)C(=C2CCCN2)C(=O)O1 | -0.743
53 | Cn1c2ccc(F)cc2c2ncn(CCCN(CCO)CCO)c(=O)c21 | 1.33
54 | COc1ccc(-c2csc(Nc3ncccc3C)n2)cc1 | -0.14
55 | O=C(CN1CCN(Cc2ccccc2Cl)CC1)N/N=C/C=C\c1ccccc1[N+](=O)[O-] | -0.0165
56 | COc1ccc(CN2C(=O)CS(=O)CC2=O)cc1OC | -0.18
57 | COc1ccc(CNC(=O)COC(=O)c2cc(-c3cccs3)nc3ccccc23)cc1OC | 0.337
58 | CC(C(=O)NC1CCCC1)N(Cc1ccc2c(c1)OCO2)C(=O)c1snc(C(N)=O)c1N (stereo not drawn) | -0.536
59 | COc1cc(CNCCc2ccccc2)ccc1OCc1ccc(Cl)nc1 | 0.743
60 | CCc1ccc(NC(=O)c2cc(C)on2)cc1 | -0.546
61 | COc1ccccc1N1CCN(C(=O)C2CC=CCC2C(=O)O)CC1 (stereo not drawn) | 0.0423
62 | Cc1cccc(NC(=O)C(=O)NCc2ccccn2)c1 | 0.329
63 | c1ccc2c(c1)OCC(c1nn3c(Cn4nnc5ccccc54)nnc3s1)O2 (stereo not drawn) | -0.154
64 | CC(C)(C)OC(=O)N1CCC(C(=O)N2CCOCC2)CC1 | -0.0984
65 | Cc1ccc(CSc2nc3sc(C)c(C)c3c(=O)n2Cc2ccco2)cc1 | 0.876
66 | Cc1nc2ccccc2n1CCCOc1ccccc1 | 0.465
67 | CCOC(=O)CSc1nc(Nc2ccc3c(c2)OCO3)c2ccccc2n1 | -0.557
68 | N#Cc1ccccc1/C=N/Nc1nc(-c2ccccc2)c2cc(Br)ccc2n1 | -0.0457
69 | CN1Cc2c(N3CCOCC3)nc(SCc3ccccc3)c(C#N)c2CC1(C)C | -0.497

Row | Structure (SMILES) | z-score
70 | Cc1ccc(S(=O)(=O)N2CCN(C(=O)N3CCOCC3)C2C(C)C)cc1 (stereo not drawn) | -0.192
71 | COc1ccc(Nc2ccc3nnc(-c4ccc(Br)cc4)n3n2)cc1 | -0.0552
72 | COc1ccc(C(=O)Nc2ccccc2C(=O)N/N=C/c2ccccc2OC)cc1 | -0.231
73 | COc1ccc(/C=N/NC(=O)c2ccc(CSc3nc(C)cc(C)n3)cc2)cc1O | -0.825
74 | O=c1cc(N2CCN(c3ccccc3)CC2)[nH]c(=O)n1C1CCCCC1 | 0.0881
75 | COC(=O)c1ccccc1NC(=O)Cc1nc(-c2ccccc2)sc1-c1ccc(C)cc1 | -0.0317
76 | Cc1ccc(OCC(=O)N2CCN(C3=NS(=O)(=O)c4ccccc43)CC2)cc1 | -0.0914
77 | O=C1c2ccccc2C(=O)N1OCc1ccc(Cl)cc1 | -0.113
78 | COc1ccc(S(=O)(=O)N(C)CC(=O)N2CCN(c3ccc(F)cc3)CC2)cc1OC | -0.0302
79 | CN(C)C(=O)CSc1nc(SCC(=O)N(C)C)n(-c2ccccc2)n1 | 1.25
80 | S=c1[nH]nc(C2CCCCC2)n1/N=C/C(Cl)=C\c1ccccc1 | -0.0746
81 | CCc1ccc(C2NC(=S)NC3=C2C(=O)CCC3)cc1 (stereo not drawn) | -0.233
82 | CC1=CN2C(=N)/C(=C/c3ccc(Sc4ccc(Cl)cc4)o3)C(=O)N=C2S1 | 1.36
83 | CCOC(=O)CNC(=O)c1ccccc1Br | 0.112
84 | CN(C)c1ccc(Nc2nc(-c3cccnc3)cs2)cc1 | -1.73
85 | C=CCn1c(SCC(=O)NCCCC)nc2scc(-c3ccco3)c2c1=O | -0.632
86 | CCc1c(C)sc(NC(=O)c2ccccc2[N+](=O)[O-])c1C(N)=O | -0.0876
87 | CCCOc1ccccc1C(=O)NC(CO)C(=O)O (stereo not drawn) | 1.28
88 | O=C(NCC1CCCO1)NC1CCCCC1 (stereo not drawn) | 0.345
89 | N#C/C(=C(/O)COC(=O)CSc1ccc(Cl)cc1)c1nc2ccccc2[nH]1 | -0.166
90 | CCC(=O)c1ccccc1OCCSc1nc(C)cc(=O)[nH]1 | -0.441
91 | O=C(N/N=C/c1ccccc1)c1ccc(N2CCOCC2)c([N+](=O)[O-])c1 | -0.296
92 | CCC(=O)Nc1ccc(NC(=O)CSc2nnnn2CC)cc1C | -0.425

Row | Structure (SMILES) | z-score
93 | CCn1cc(Br)c(C(=O)Nc2ccc(Cl)cc2Cl)n1 | 0.126
94 | Cc1nc2nc(-c3ccco3)[nH]n2c(=O)c1C | -1.89
95 | O=C(COC(=O)c1ccccc1)c1ccc(Br)cc1 | -0.0783
96 | COC(=O)COc1ccc(S(=O)(=O)Nc2ccccc2C(=O)OC)cc1 | -0.179
97 | CC1=NN(C(=O)COc2ccccc2)C(O)(c2ccccc2)C1 (stereo not drawn) | -0.0689
98 | COc1ccc(C2CC(C(F)(F)F)n3nc(C(=O)Nc4ccc5c(c4)OCO5)cc3N2)cc1 (stereo not drawn) | -0.282
99 | CCOc1ccc2[nH]c(=O)c(CN(CCO)Cc3nnnn3CCc3ccccc3)cc2c1 | 0.394
100 | COCCCNS(=O)(=O)c1ccc(OC)c(Cl)c1Cl | 0.284
101 | O=C(Nc1ccccc1N1CCOCC1)c1ccccc1[N+](=O)[O-] | -0.093
102 | C=CCNC(=O)C(=O)NN=C1CCN(C)CC1 | -0.129
103 | Cc1ccc(-n2nnnc2SCC(N)=O)c(C)c1 | 0.114
104 | CCCN(CCO)Cc1ccc(Br)cc1 | 1.27
105 | COc1cc(/C=N/Nc2cccc(C)c2)ccc1OC(=O)c1cccs1 | 0.189
106 | CCOc1ncccc1C(=O)Oc1ccc2c(c1)OCO2 | 0.582
107 | CC(=O)C1=C(c2ccccc2)OC(N)=C(C#N)C1c1ccccc1C (stereo not drawn) | -0.715
108 | NC(=O)c1ccc(C(F)(F)F)n(Cc2ccc(Cl)cc2)c1=O | -0.45
109 | O=C(O)CCCCCN1C(=O)/C(=C\c2ccncc2)SC1=S | 0.0802
110 | CC(C)(C)n1ncc2c(=O)n(Cc3ccc(Cl)cc3Cl)cnc21 | -1.25
111 | O=C(NCc1ccco1)c1cccc(-c2nnc(-c3ccccc3)o2)c1 | -1.35
112 | Cc1cc(C)c(NC(=O)CC(C)(C)C)c(Cl)c1 | 0.0682
113 | CCOC(=O)N1CCC(N2C(=O)c3ccccc3C2Nc2cc(Cl)c(OC)cc2OC)CC1 (stereo not drawn) | -0.515
